Source: publication PMC4336329 (PLoS ONE, 2015)
About 14,000 (4.5%) of roughly 310,000 compounds showed an effect of 50% or more. Effects have a minus sign here. The list shows a part of the results.

target: human ether-à-go-go-related gene (hERG) potassium channel (human, UniProt Q12809); experiment: primary screen, population patch clamp on CHO cells stably expressing hERG
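Also: peak tail current of the secondary pulse compared with the same well before compound.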

Chain of human ether-à-go-go-related gene (hERG) potassium channel (Q12809 whole entry, looked up): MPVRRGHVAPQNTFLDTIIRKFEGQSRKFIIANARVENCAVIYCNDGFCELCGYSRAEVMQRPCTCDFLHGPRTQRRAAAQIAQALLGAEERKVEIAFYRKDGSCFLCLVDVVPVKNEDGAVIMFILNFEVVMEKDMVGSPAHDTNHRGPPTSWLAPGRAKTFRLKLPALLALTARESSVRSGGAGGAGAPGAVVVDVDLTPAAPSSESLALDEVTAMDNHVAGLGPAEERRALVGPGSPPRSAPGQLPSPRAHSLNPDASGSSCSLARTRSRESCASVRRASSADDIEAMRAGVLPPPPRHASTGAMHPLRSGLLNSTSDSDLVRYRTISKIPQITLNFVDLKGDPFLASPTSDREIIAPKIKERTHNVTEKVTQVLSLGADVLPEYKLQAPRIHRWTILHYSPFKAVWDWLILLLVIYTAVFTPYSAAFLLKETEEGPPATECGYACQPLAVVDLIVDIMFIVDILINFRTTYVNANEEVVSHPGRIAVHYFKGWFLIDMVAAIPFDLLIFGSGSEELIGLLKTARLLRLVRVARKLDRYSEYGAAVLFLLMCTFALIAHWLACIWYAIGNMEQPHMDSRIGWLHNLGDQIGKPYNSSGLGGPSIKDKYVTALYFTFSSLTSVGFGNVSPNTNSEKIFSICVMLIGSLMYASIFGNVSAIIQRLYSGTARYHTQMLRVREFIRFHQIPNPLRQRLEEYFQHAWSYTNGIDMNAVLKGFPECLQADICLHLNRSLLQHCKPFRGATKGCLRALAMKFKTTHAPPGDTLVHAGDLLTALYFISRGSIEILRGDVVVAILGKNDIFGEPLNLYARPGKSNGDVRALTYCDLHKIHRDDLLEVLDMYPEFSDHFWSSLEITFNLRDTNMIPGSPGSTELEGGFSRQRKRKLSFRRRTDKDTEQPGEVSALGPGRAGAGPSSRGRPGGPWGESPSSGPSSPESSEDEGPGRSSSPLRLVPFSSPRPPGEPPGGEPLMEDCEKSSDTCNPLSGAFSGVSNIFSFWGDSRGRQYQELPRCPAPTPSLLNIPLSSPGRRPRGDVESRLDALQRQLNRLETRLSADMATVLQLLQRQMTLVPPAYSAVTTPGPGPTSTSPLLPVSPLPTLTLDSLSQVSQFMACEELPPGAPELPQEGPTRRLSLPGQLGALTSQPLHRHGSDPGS

Compound	hERG current change (%, negative = inhibition) at 10uM [%]
CCOC(=O)C(=O)Nc1nnc(SCc2ccc(F)cc2)s1	1.7
COc1cccc(NC(=O)c2ccc(S(=O)(=O)N3CCCCC3)cc2)c1	-7.75
N#Cc1ccc(-c2csc(NC(=O)C3CC3)n2)cc1	14.5
CC(=O)CN1Cc2ccccc2/C1=N\C(=O)Nc1ccccc1	11.7
O=C(Cn1cnc2ccccc2c1=O)NCc1ccc2c(c1)OCO2	1.92
Cc1ccc(OCCCCN2CCC(C)CC2)c(Br)c1.O=C(O)C(=O)O	-63.1
O=C(CSc1nnc(CNC(=O)c2ccc(F)cc2)o1)NCc1ccc2c(c1)OCO2	6.79
Cc1noc(C)c1COc1ccc(C(=O)NCc2ccccn2)cc1	19
CC(=O)Nc1ccc(S(=O)(=O)N2CCCC2C(=O)O)cc1 (stereo not shown)	5.17
COc1ccccc1CCNC(=O)C1CCC(=O)N(Cc2ccccc2OC)C1 (stereo not shown)	-13.2
O=C(CN1C2CCCC1CC(NC(=O)c1ccccc1)C2)Nc1ccccc1 (stereo not shown)	-50.7
CCCCCNS(=O)(=O)c1cc(C)ccc1OC	1.08
COc1ccc([C@H]2CC(=O)C=C(c3cc4ccccc4c4ccccc34)C2)cc1	13.6
COc1cccc(NC(=O)CCNS(=O)(=O)c2cccc3nsnc23)c1	1.56
CN(C)CCCN(C(=O)c1ccco1)c1nc(-c2ccc(Cl)cc2)cs1.Cl	-72.5
O=C1NCCCC1C(=O)Nc1cccc(C(F)(F)F)c1 (stereo not shown)	-8.78
COc1ccc(NC(=S)N2CCC(C(=O)N3CCCCCC3)CC2)cc1	12.7
CC(=O)[C@@]12O[C@@H]1C[C@H]1[C@@H]3CC[C@H]4C[C@@H](O)CC[C@]4(C)[C@H]3CC[C@@]12C	16.9
CCOC(=O)c1oc2ccccc2c1CSc1nnnn1-c1ccccc1	0.684
NC(=O)c1ccc(NCCc2ccccc2)c([N+](=O)[O-])c1	-23
O=C(Nc1ccccc1N1CCOCC1)c1cc(F)cc(F)c1	0.229
O=C(Nc1nccs1)c1cc([N+](=O)[O-])ccc1Cl	12.8

Compound	hERG current change (%, negative = inhibition) at 10uM [%]
COc1ccc(-c2cc(C(=O)OC3CCOC3=O)c3ccccc3n2)cc1OC (stereo not shown)	2.82
Cc1ccc(/C=N/N=C2/NC(=O)C(CC(=O)Nc3ccc(Cl)cc3)S2)o1 (stereo not shown)	8.8
Cc1cccc(NC(=S)NC(C)C(c2ccccc2)N2CCN(C)CC2)c1C (stereo not shown)	-50
CC(Oc1ccc(Br)cc1)C(=O)Nc1ccc(S(=O)(=O)N(C)C2CCN(C)CC2)cc1 (stereo not shown)	-26.7
CC(C)NC(=O)CCCn1cc([N+](=O)[O-])cn1	9.98
O=C(NCC1CCCO1)c1cccc2ccccc12 (stereo not shown)	21.2
O=C1S/C(=C/c2ccc(N3CCOCC3)o2)C(=O)N1Cc1c(F)cccc1Cl	-0.91
Oc1ccccc1CN1CCCC(N2CCN(c3cccc(C(F)(F)F)c3)CC2)C1 (stereo not shown)	-61.9
CC(CN1CCOCC1)OC(=O)Cc1ccccc1.Cl (stereo not shown)	8.44
CC(C)(C)c1ccc(OCCC(=O)OCC(=O)NC2CC2)cc1	-3.17
O=C(c1ccc2c(c1)C(=O)N(Cc1ccco1)C2=O)N1CCOCC1	4.54
CC(NC(=O)CN1CCOCC1)c1ccc(F)cc1 (stereo not shown)	10.6
Clc1cccc(CN2CCN(c3nc4nonc4nc3NC3CC3)CC2)c1	-65.4
Cc1ccc(Cn2cnc3c(cnn3C(C)(C)C)c2=O)cc1	4.92
CCOC(=O)c1c(NC(=O)CSc2nnc3c(n2)[nH]c2ccccc23)sc2c1CCN(C)C2	-6.08
Cn1c(CCc2ccccc2)nnc1SCC(N)=O	15.3
CC1CC(=O)Nc2ccccc2N1C(=O)CN1CCN(c2ccccc2)CC1 (stereo not shown)	2.87
COC(=O)C(C)Oc1ccc2cc(-c3ccccc3)c(=O)oc2c1 (stereo not shown)	11.8
Cc1ccc(Cl)cc1NC(=O)CCC(=O)Nc1cc(Cl)ccc1C	19.8
Cc1ccc(C(C(=O)NC2CCCCC2)N(Cc2ccco2)C(=O)Cn2cnc3ccccc32)cc1 (stereo not shown)	-18.8
Cc1ccc(/C=C/c2onc(C)c2S(=O)(=O)N2CCC(C(=O)NC(C)(C)C)CC2)cc1	-4.05
